Assay results published in PubChem BioAssay AID485281 (National Center for Advancing Translational Sciences (NCATS), 2010).
Where “and” joins values, the source holds several entries; their conditions need not be identical. Equal entries are not always repeated. Out of some 350,000 compounds screened, about 260 (0.074%) were called active. This list was built around the results that the source calls inconclusive (neither active nor inactive); the mix of calls is not that of the screen. Calls follow the shape of the dose curve; as a rule, active = well fitted inhibition curve with a large enough effect; inconclusive = small, poorly fitted or top-dose-only effect; inactive = no such curve, though single readings can be large or run the other way. Potencies beside an inconclusive call are fits to weak or partial responses and may not hold up.

Molecular target: Ferritin light chain (Equus caballus) (UniProt P02791)
Experiment: qHTS Assay for Identification of Novel General Anesthetics; also: nearly all actives have a fitted effect of over 20% in size
Settings: apoferritin/1-aminoanthracene competitive binding, fluorescence; activity change, negative = displacement: at 77.5 µM (top of the series)
Procedure, shortened: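 Horse-spleen apoferritin (10 uM) was mixed with 50% saturated 1-aminoanthracene in PBS, exposed to compounds for 10 min at room temperature, and read for fluorescence (ex 380 nm, em 535 nm). Competitive displacement was fitted with a four-parameter Hill equation.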
% is scaled to controls: 0 for no effect and ±100 for the full control effect; potency is read from the fitted curve at half-maximal effect; tags tell the direction and shape of the fitted curve.

UniProt P02791, sequence (P02791 whole entry, looked up): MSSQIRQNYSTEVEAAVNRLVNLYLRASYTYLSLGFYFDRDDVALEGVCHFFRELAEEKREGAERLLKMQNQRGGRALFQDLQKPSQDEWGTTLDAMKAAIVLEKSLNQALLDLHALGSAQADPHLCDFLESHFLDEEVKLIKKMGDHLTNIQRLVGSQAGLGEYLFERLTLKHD

| SMILES | Potency | activity change, negative = displacement |
| --- | --- | --- |
| CC(C)OCCCNC(=O)COc1ccc2oc3c(c2c1)CCCC3 | inconclusive: 39.8 µM [inhibitor, single point] | – |
| CCOC(=O)C1OC1C(=O)NC(CC(C)C)C(=O)NCCC(C)C (stereo not given) | – | inactive: -5.46% |
| CCOc1ccc(NC(=O)CSc2ccc(-c3ccccn3)nn2)cc1 | – | inactive: -4.26% |
| CC1CCC(NC(=O)c2ccc(CSc3nc4ccncc4n3Cc3ccc(F)cc3)cc2)CC1 (stereo not given) | inconclusive: 14.1 µM [inhibitor, partial curve] | – |
| CC(C)(C)C(=O)NNc1nc(-c2ccccc2)c2cc(Br)ccc2n1 | inconclusive: 31.6 µM [inhibitor, single point] | – |
| COc1cc(/C=N/NC(=O)c2cc(-c3ccccc3)nc3ccccc23)cc(OC)c1O | inconclusive: 20 µM [inhibitor, partial curve] | – |
| CCCc1cc(-c2nc(N)ncc2-c2csc(C)n2)c(O)cc1OC | inconclusive: 50.1 µM [inhibitor, single point] | – |
| CCN1CCN(C(=O)c2cc3ccc(OC)cc3[nH]2)CC1 | – | inactive: 2.08% |
| Cc1cc2ccccn2c1C(=O)c1ccc(Cl)cc1 | inconclusive: 11.2 µM [inhibitor, partial curve] | – |
| CSC1=N/C(=C\c2ccccc2)C(=O)N1C | inconclusive: 56.2 µM [inhibitor, single point] | – |
| CCN1CCN(c2ccc(NC(=O)c3ccc4c(c3)[nH]c(=O)n4Cc3ccc(F)cc3)cc2)CC1 | inconclusive: 31.6 µM [inhibitor, partial curve] | – |
| Cc1cc(NC(=O)CCC(=O)N(c2cccc(F)c2)C(C(=O)NC2CCCC2)c2ccccc2)no1 (stereo not given) | – | inactive: -3.35% |
| CCCn1c(C(C)Nc2nc(-c3ccc(Cl)c([N+](=O)[O-])c3)cs2)nc2ccccc21 (stereo not given) | inconclusive: 44.7 µM [inhibitor, partial curve] | – |
| CSc1ccccc1OCc1cc(C(=O)NCCc2ccco2)no1 | inconclusive: 14.1 µM [inhibitor, partial curve] | – |
| CCCN(CCC)C(=O)CC(c1ccc(F)cc1)c1ccco1 (stereo not given) | inconclusive: 35.5 µM [inhibitor, single point] | – |
| CCc1c(C)[nH]c2nc3ccccc3n2c1=O | – | inactive: 5.93% |
| CCOC(=O)c1cc(C#N)c(SC)nc1-c1ccccc1 | inconclusive: 44.7 µM [inhibitor, partial curve] | – |
| Oc1ccc(N2CCN(c3ncnc4sc5c(c34)CCC5)CC2)cc1 | inconclusive: 17.8 µM [inhibitor, partial curve] | – |
| O=C(COc1ccccc1Cl)NC(=S)N1CCc2ccccc21 | inconclusive: 35.5 µM [inhibitor, partial curve] | – |
| COc1cc(CNCc2cccs2)ccc1OCc1ccccc1 | inconclusive: 15.8 µM [inhibitor, partial curve] | – |
| C/C(=N/NC(=O)CNS(=O)(=O)c1ccc(C)cc1)c1cccc([N+](=O)[O-])c1 | inconclusive: 5.62 µM [inhibitor, full curve] | – |
| CC(=O)c1c(C)[nH]c(C(=O)COc2cc(C)ccc2C(C)C)c1C | inconclusive: 14.1 µM [inhibitor, partial curve] | – |
| Cc1ccc(-c2nnc(N3CCOCC3)c3ccccc23)cc1S(=O)(=O)N(C)C | – | inactive: 29.6% |
| Cc1cc(N2C3CCC2CC(O)(c2ccc(F)cc2)C3)nc(-c2ccccc2)n1 (stereo not given) | – | inactive: 1.06% |

| SMILES | Potency | activity change, negative = displacement |
| --- | --- | --- |
| Cc1ccc(O)c(NC(=O)c2cc(-c3ccc(F)cc3)no2)c1 | inconclusive: 28.2 µM [inhibitor, single point] | – |
| COc1ccc(-n2nc3c(N4CCC(C(=O)N5CCC(C)CC5)CC4)nnc(C)c3c2C)cc1 | inconclusive: 44.7 µM [inhibitor, single point] and inconclusive: 14.1 µM [inhibitor, partial curve] | – |
| CC1=C(C#N)C(=O)NC(=O)/C1=C\c1ccc(-c2cc(C)c(C)cc2[N+](=O)[O-])o1 | inconclusive: 17.8 µM [inhibitor, partial curve] | – |
| O=C1c2ccsc2SCCN1Cc1ccccc1Cl | inconclusive: 8.91 µM [inhibitor, partial curve] | – |
| CCOC(=O)Nc1cccc2ccccc12 | inconclusive: 44.7 µM [inhibitor, partial curve] | – |
| CCOC(=O)c1snc(C(=O)NC2CCCCC2)c1N | inconclusive: 35.5 µM [inhibitor, partial curve] | – |
| CC(=O)NCCN1C(=O)S/C(=C\c2cccs2)C1=O | inconclusive: 35.5 µM [inhibitor, single point] | – |
| COc1ccc(-c2cc(CNC(=O)CN(C)Cc3ccccc3)on2)cc1 | inconclusive: 22.4 µM [inhibitor, partial curve] | – |
| CCOC(=O)CC1=NS(=O)(=O)c2ccccc2N1 | – | inactive: -7.18% |
| O=C(COC(=O)c1c2c(nc3ccccc13)CCCCC2)c1ccc(Cl)s1 | inconclusive: 17.8 µM [inhibitor, partial curve] | – |
| Cc1cc(C(=O)OCC(=O)N2c3ccccc3CC2C)c(C)o1 (stereo not given) | inconclusive: 31.6 µM [inhibitor, partial curve] | – |
| CC(=O)C1=C(O)C(=O)N(c2cc(C(C)(C)C)on2)C1c1ccc(C(C)C)cc1 (stereo not given) | – | inactive: -13.1% |
| CCc1ccc(-c2cc(C)no2)cc1S(=O)(=O)NC(C)Cc1ccco1 (stereo not given) | – | inactive: -1.9% |
| CC(C)C(=O)N1CCN(c2ccccc2NC(=O)c2cccc3ccccc23)CC1 | inconclusive: 28.2 µM [inhibitor, partial curve] | – |
| CC1=NN(C(=O)CCCc2ccccc2)C(O)(C(F)(F)F)C1 (stereo not given) | inconclusive: 35.5 µM [inhibitor, partial curve] | – |
| CCN1CCN(CCCNC(=O)Cn2c(-c3cccs3)cc3cc(Cl)ccc32)CC1 | – | inactive: -9.01% |
| CC1CCCCN1c1cc2c(cc1F)c(=O)c(S(=O)(=O)c1ccccc1)cn2Cc1ccccc1 (stereo not given) | – | inactive: 47.1% |
| Cc1ccc2[nH]c(=O)c(CN(Cc3cccnc3)Cc3nnnn3CCN3CCOCC3)cc2c1 | – | inactive: -8.42% |
| O=S(=O)(Nc1ccc(O)c(Sc2nc3ccccc3s2)c1)c1cc(Cl)ccc1Cl | – | inactive: -5.07% |
| CCCn1nc(NC(=O)C2CCCO2)c2cc3cc(C)ccc3nc21 (stereo not given) | – | inactive: 190% |
| CCn1cc(C(=O)NCCC(C)C)c(=O)c2cc(S(=O)(=O)N(C)C3CCCCC3)ccc21 | inconclusive: 3.98 µM [inhibitor, single point] | – |
| Cc1ccccc1N=Nc1c(N)n[nH]c1N | inconclusive: 35.5 µM [inhibitor, partial curve] | – |
| c1ccc(-c2noc(-c3cccc4ccccc34)n2)nc1 | – | inactive: -21.3% |
| COc1ccc(-c2nn(-c3ccccc3)cc2/C=N/n2cnnc2)cc1OC | – | inactive: -14% |

| SMILES | Potency | activity change, negative = displacement |
| --- | --- | --- |
| CS(=O)(=O)c1ccc2c(c1)sc1nc(=O)c(/C=C3/C=CC(=O)C(O)=C3)c(N)n12 | – | inactive: -2.36% |
| Cc1ccc(NC(=O)Cn2nc(-c3ccco3)ccc2=O)cc1Cl | inconclusive: 8.91 µM [inhibitor, partial curve] | – |
| COc1cc(S(=O)(=O)NCCc2c(C)[nH]c3ccc(C)cc23)ccc1Br | – | inactive: 6.25% |
| COc1ccc(N(C(=O)c2ccccc2C)S(=O)(=O)c2ccc(Cl)cc2)cc1 | inconclusive: 0.891 µM [inhibitor, full curve, poor fit] | – |
| CCCOc1ccc2c(=O)c(-c3cc(C(=O)OC)oc3C)c(C)oc2c1 | inconclusive: 25.1 µM [inhibitor, partial curve] | – |
| O=[N+]([O-])c1ccccc1CNc1ccc(F)c(Cl)c1 | inconclusive: 50.1 µM [inhibitor, single point] | – |
| CCCCCc1cc(=O)oc2c(C(CCN(CC)CC)c3ccc(OC)cc3)c(OC)cc(OC)c12 (stereo not given) | inconclusive: 25.1 µM [inhibitor, partial curve] | – |
| Cc1cccc(NC(=O)c2ccc(F)c(S(=O)(=O)NCc3ccco3)c2)c1 | – | inactive: -21.8% |
| Cc1ccc(NC(=O)CCc2nnc3ccc(N4CCC(C)CC4)nn23)nc1 | – | inactive: -4.32% |
| C=CCc1ccc(OCCn2cccc2C=O)c(OC)c1 | inconclusive: 17.8 µM [inhibitor, partial curve] | – |
| COc1ccc(C(=O)c2cn(Cc3ccccc3)c3ccccc3c2=O)cc1OC | inconclusive: 22.4 µM [inhibitor, partial curve] | – |
| Cc1cccc(/C=C/C(=O)c2ccc(NC3=NCCCS3)cc2)c1 | inconclusive: 25.1 µM [inhibitor, partial curve] | – |
| Cc1ccc(NC2=C(Cl)C(=O)OC2OC(=O)c2ccc(C)cc2)cc1 (stereo not given) | inconclusive: 5.01 µM [inhibitor, partial curve] | – |
| CCc1nnc(NC(=O)CN2CCN(C3CCCCC3)CC2)s1 | – | inactive: -5.65% |
| CCN(CC)CC(O)Cn1c(-c2ccccc2Cl)nc2ccccc21 (stereo not given) | – | inactive: -0.158% |
| COc1cc(C(=O)OC2CCCCC2=O)cc(OC)c1C (stereo not given) | inconclusive: 56.2 µM [inhibitor, single point] | – |
| COc1ccc(CCN2C(=O)c3[nH]nc(-c4ccccc4O)c3C2c2cccc(O)c2)cc1OC (stereo not given) | inconclusive: 31.6 µM [inhibitor, partial curve] | – |
| O=C(Cn1cnc2ccccc2c1=O)Nc1cccc(S(=O)(=O)N2CCCCC2)c1 | inconclusive: 35.5 µM [inhibitor, single point] | – |
| O=c1c(/C=N/O)coc2ccc3ccccc3c12 | inconclusive: 31.6 µM [inhibitor, partial curve] | – |
| COC(=O)c1ccc(NC(=S)N2CCN(Cc3ccccc3)CC2)cc1 | inconclusive: 35.5 µM [inhibitor, partial curve] | – |
| O=C(CCNc1cc(Cl)cc(Cl)c1)c1cccs1 | inconclusive: 12.6 µM [inhibitor, partial curve] | – |
| CC(C)c1ccc(NC(=O)COC(=O)CCC(=O)c2cccs2)cc1 | inconclusive: 50.1 µM [inhibitor, single point] | – |
